Measured values from article PMC12136788.
The list shows a part of the results.

T1: UNK ZnF1-3 (human, UniProt Q9C0B0 31-174)
T1 sequence: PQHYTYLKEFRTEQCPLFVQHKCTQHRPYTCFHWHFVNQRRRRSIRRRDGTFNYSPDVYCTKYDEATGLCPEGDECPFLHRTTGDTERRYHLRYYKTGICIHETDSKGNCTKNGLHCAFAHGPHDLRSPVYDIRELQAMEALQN

B1: 31041438_31041558_596_CDS_ENSG00000197183_ENST00000359676|human|control|control (ssRNA)
RNA: GGGAGUUCUACAGUCCGACGAUCCUCAUGGUCAUCGUGGUCAUCGUCGUCAUCAUCUGCCGUCGGGGCCCGGCCCACUGUCAGGUCCUCAGGGCAGCCGCUGACCUCGGUCUUGAUGGAAUCGUAGCUCCCAGAGCUGUAGGGCAACAGAGGAUUGAGCAUCA
B2: 66626529_66627192_1617_CDS_ENSG00000173621_ENST00000309602|human|control|control (ssRNA)
RNA: GGGAGUUCUACAGUCCGACGAUCUGACAAGGCCAGCAGGCAGAGGUCAUAGUCAGCGCCGGGGACGAGGUGCUUCAGCAGGAAGUGGUGGCUGGAGGCUGGGACAAUCCGGUAGAUGAGGGUCUCAUCUUCGCUGCUGUUGUACAACAGAGGAUUGAGCAUCA
B3: chr5:138994509:138994510:+_ENSG00000131508_ENST00000398734|hu_mus|FALSE|FALSE (ssRNA)
RNA: GGGAGUUCUACAGUCCGACGAUCGAUGGACAAAAGUACUUUUGAAAUAGUUAGUGCUGGAGACCACUGUGACCGUAGAAUAUCAAGACAAAUGCUGCCAUUACUGUUAAUAUUUGGGUGAUAAAUUCUUGUUGUAAAUGCAACCAACAGAGGAUUGAGCAUCA
B4: chr1:185278638:185278639:-_ENSG00000116679_ENST00000392007|hu_hu|FALSE|FALSE (ssRNA)
RNA: GGGAGUUCUACAGUCCGACGAUCUAAAAUUUUCAUCCUCAAACAUCAAAUAUCCAUUGGGAAUCAUUUUUCCUUAUAAAUUUGGCUACUCUGUUGGUGGCAAAUGUAUUUCUGGGAACUCUUAAGUAAUCCAAGGACAAAGGACAACAGAGGAUUGAGCAUCA
B5: chr3:9412954:9412955:+_ENSG00000134077_ENST00000452837|hu_mus|hu_hu_hu_mus_False|18_108 (ssRNA)
RNA: GGGAGUUCUACAGUCCGACGAUCGGUUGAUACAUCCUCUUUGAUGGCUGGAUUUUCAUAAUAGUCCAAGAUAUGUGAAUCUGAAGUGCUGCUGGCAUGCUUUUUCUUACCAUCUUUCUGAUCGAUUUUGUCUCCUUGUCCACACAACAGAGGAUUGAGCAUCA
B6: chr4:140556289:140556290:+_ENSMUSG00000036622_ENSMUST00000037055|mus_mus|mus_mus_mus_hu_False|58_78 (ssRNA)
RNA: GGGAGUUCUACAGUCCGACGAUCGAUGGAGCUCACCAGGCCCCCUUUUGCCGUGCAGAACCCUGUCCGGGUCACCACUGCUAGCACGUGCGGUCCCACAUAGGCCCGGGCCUGCAAGAUGAGGGUCCCGCAGAAGAGUGUGUGCAACAGAGGAUUGAGCAUCA

What follows are binders tested against T1, UNK ZnF1-3 (assay: nsRBNS (natural sequence RNA bind-n-seq); RBNS binding buffer (assumed for nsRBNS): 25 mM Tris pH 7.5, 150 mM KCl, 3 mM MgCl2, 0.01% Triton X-100, 500 ug/ml BSA, 20 U/ml SUPERase-In, 4 C; UNK is unkempt and MSI1 is Musashi-1; names of the RNAs are library labels; protein concentration not given here; high values mean tight binding).

With B1 as the binder, how does the binding signal read?
Its binding signal is 0.479 enrichment R.

B2 was tested. Which binding signal did it give?
The binding signal was 1.67 enrichment R.

For B3, which binding signal is on record?
The binding signal was 1.11 enrichment R.

Which binding signal does the source give for B4 here?
Its binding signal is 0.777 enrichment R.

With B5 as the binder, how does the binding signal read?
Its binding signal is 0.554 enrichment R.

How did the binding signal turn out when B6 was run?
Its binding signal is 1.16 enrichment R.
